Measured values published in PubChem BioAssay AID485294 (National Center for Advancing Translational Sciences (NCATS), 2010).
The whole screen tested about 370,000 compounds, of which about 150 (0.041%) were called active. The shares of active, inactive and inconclusive entries below differ from those in the screen. The call rests on the fitted dose curve; in most records, active means well fitted inhibition curve with a large enough effect; inconclusive means small, poorly fitted or top-dose-only effect; inactive means flat fitted curve, though single readings scatter. Potencies of inconclusive entries are left out as doubtful fits.

Target: Beta-lactamase (Escherichia coli (strain K12)) (UniProt P00811)
Sequence of UniProt P00811 (P00811 whole entry, looked up): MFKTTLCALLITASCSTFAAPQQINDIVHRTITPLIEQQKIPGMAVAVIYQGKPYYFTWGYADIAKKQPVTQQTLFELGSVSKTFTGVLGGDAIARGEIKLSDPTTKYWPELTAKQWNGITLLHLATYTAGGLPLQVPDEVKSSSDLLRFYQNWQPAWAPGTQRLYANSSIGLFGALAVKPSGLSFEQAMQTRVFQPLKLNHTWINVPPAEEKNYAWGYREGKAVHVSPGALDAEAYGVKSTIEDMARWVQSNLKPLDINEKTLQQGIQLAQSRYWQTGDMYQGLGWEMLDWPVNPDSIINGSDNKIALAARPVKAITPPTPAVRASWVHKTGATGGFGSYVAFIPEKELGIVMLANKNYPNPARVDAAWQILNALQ
Experiment: qHTS Inhibitors of AmpC Beta-Lactamase (assay with detergent); further: nearly all actives have a fitted effect of over 25% in size
Conditions: AmpC hydrolysis of nitrocefin, absorbance 480 nm, 0.01% Triton; series mostly up to 114 µM
Procedure, shortened: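 AmpC (5.3 nM in the dispensed reagent) in 20 mM phosphate pH 7.0 with 0.01% (detergent screen) or 0.0001% Triton X-100 was preincubated with compounds for 15 min at room temperature. Nitrocefin was then added from an 800 uM solution, and hydrolysis was followed at 480 nm.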
Potency means the concentration at half of the fitted maximal effect; tags describe the fitted curve by direction and shape.

| SMILES | Potency |
| --- | --- |
| CN(Cc1c(F)cccc1Cl)C(=O)CCc1c[nH]c2ccccc12 | inactive |
| CCc1ccc(NC(=O)CSc2nncn2-c2cccnc2)cc1 | inactive |
| Cc1nn(Cc2ccccc2)c(C)c1CNC(=O)CN=C1NS(=O)(=O)c2ccccc21 | inconclusive [inhibitor, full curve, poor fit] |
| COCCNc1nnc(SCC(=O)Nc2cc(-c3ccccc3)nn2-c2ccccc2)s1 | inconclusive [inhibitor, partial curve] |
| O=C(Cn1cc(S(=O)(=O)Cc2ccccc2)c2ccccc21)Nc1ccccc1 | inconclusive [inhibitor, full curve, poor fit] |
| Cc1ccc(C(=O)Nc2ccc(NC(=O)c3cccs3)cc2)cc1C | inactive |
| CC(Oc1ccccc1)C(=O)Nc1c2c(nn1-c1ccccc1)CS(=O)(=O)C2 (stereo unspecified) | inactive |
| Cc1cc(Cl)ccc1NC(=O)C(=O)NCc1ccco1 | inactive |
| Cc1ccc(Cl)cc1N1CCN(Cc2nc3c(c(=O)[nH]c(=O)n3C)n2Cc2ccccc2F)CC1 | inconclusive [inhibitor, partial curve] |
| NC(=O)c1ccsc1NC(=O)CS(=O)(=O)c1ccc(F)cc1 | inconclusive [inhibitor, full curve, poor fit] |
| Cc1cc(=O)[nH]c(SCC(=O)Nc2ccc(Br)cc2)c1C#N | inconclusive [inhibitor, partial curve, poor fit] |
| CCN(CC(=O)Nc1ccccc1OC)C(=O)c1ccc(NC(=O)c2cccs2)cc1 | inactive |
| Cc1ccc(C)c(N2CCN(CCCNC(=O)c3cnn(-c4ccccc4Cl)c3C3CCN(C(=O)OC(C)(C)C)CC3)CC2)c1 | inactive |
| O=C(O)Cc1ccc(C(=O)c2ccccc2)s1 | inactive |
| O=S(=O)(c1ccc2ccccc2c1)N1CCN(C2Cc3ccccc3C2)CC1 | inconclusive [inhibitor, full curve, poor fit] |
| CNC(=O)C(=O)NCC1CCCN1S(=O)(=O)c1cccs1 (stereo unspecified) | inconclusive [inhibitor, full curve, poor fit] |
| CCS(=O)CCSC(=N)N (stereo unspecified) | inconclusive [inhibitor, full curve, poor fit] |
| CCCNC(=O)c1cc(Cl)c(NC(=O)C2=C(C)OCCS2)cc1OC | inactive |
| CCCc1cc(C(=O)Nc2ccccc2C(=O)OC)no1 | inconclusive [inhibitor, full curve] |
| COC(=O)N/N=C1/C/C(=N\NC(=O)OC)c2ccccc21 | inconclusive [inhibitor, full curve] |
| O=C(c1ccc(Br)cc1)N1CCCC1 | inactive |
| COc1ccc(C2c3ccc4ccccc4c3Oc3ncn(Cc4ccco4)c(=N)c32)cc1OC (stereo unspecified) | inactive |
| CN(C)S(=O)(=O)c1ccc(C(=O)Nc2nnc(-c3ccc4c(c3)CCCC4)o2)cc1 | inconclusive [inhibitor, partial curve, poor fit] |
| CC(=O)CC[C@@H](C)O[C@@H]1OC(C)[C@H](O)CC1O (stereo partly specified) | inconclusive [inhibitor, partial curve] |

| SMILES | Potency |
| --- | --- |
| O=C(CSCc1cccc(Br)c1)N=Nc1c(O)[nH]c2ccccc12 | inconclusive [inhibitor, full curve, poor fit] |
| Cc1ccc(C(=O)OCc2nnc(-c3ccccc3)o2)cc1S(=O)(=O)N1CCOCC1 | inconclusive [inhibitor, partial curve, poor fit] |
| CN(C)CCCN1C(=O)C(=O)/C(=C(/O)c2ccc(OCc3ccccc3)cc2)C1c1cccnc1 (stereo unspecified) | inconclusive [inhibitor, full curve] |
| Cc1c(NC(=O)Nc2ccccc2C(F)(F)F)sc2nc3n(c(=O)c12)CCC(C)CC3 (stereo unspecified) | inactive |
| CC(C)C1Cc2c(C#N)c(N)sc(=S)c2CO1 (stereo unspecified) | inactive |
| CCOC(=O)C1(CCc2ccccc2)CCN(C(=O)CCc2cnn(C)c2)CC1 | inactive |
| O=C(NCc1ccccc1)Nc1cccn(Cc2ccccc2)c1=O | inactive |
| COc1ccc(Nc2nc(N3CCN(S(C)(=O)=O)CC3)nc3ccccc23)c(OC)c1 | inconclusive [inhibitor, full curve, poor fit] |
| COc1ccc(OC)c(NC(=O)c2cc(OC(C)=O)cc(C(=O)Nc3cc(OC)ccc3OC)c2)c1 | inconclusive [inhibitor, partial curve] |
| CC(C)CCNC(=O)c1cnc2sc(N3CCCCC3)nn2c1=O | inactive |
| O=[N+]([O-])c1ccc(-c2ccc(/C=N/Nc3nc(N4CCCCC4)nc(N4CCCCC4)n3)o2)cc1 | inactive |
| CCC(C(=O)Nc1cccnc1)c1ccccc1 (stereo unspecified) | inactive |
| COc1ccc(N(C(=O)c2ccco2)C(C(=O)NC2CCCC2)c2ccc(N(C)C)cc2)cc1OC (stereo unspecified) | inconclusive [inhibitor, partial curve, poor fit] |
| O=C1CC(c2ccccc2)c2ccccc21 (stereo unspecified) | inconclusive [inhibitor, full curve] |
| Cc1ccc2[nH]c3c(N4CCN(Cc5ccccc5)CC4)ncnc3c2c1 | inactive |
| C/C(=N\NC(=O)c1ccccc1-n1cccc1)C1CC1 | inconclusive [inhibitor, partial curve, poor fit] |
| Cc1cc2ncc(-c3ccc(Cl)cc3)cn2n1 | inconclusive [inhibitor, full curve, poor fit] |
| COC(=O)c1cccc(-n2[nH]nnc2=S)c1 | inconclusive [inhibitor, partial curve] |
| CCCCN(CC)CCCNC(=O)Nc1sc2nc3n(c(=O)c2c1C)CCC(C)CC3 (stereo unspecified) | inactive |
| COCCCN1CC(=O)N2Cc3[nH]c4ccccc4c3C[C@H]2C1=O | inconclusive [inhibitor, partial curve, poor fit] |
| CC1(C)CN=C(N2CCN(c3ncnc4sc5c(c34)CCCC5)CC2)S1 | inconclusive [inhibitor, partial curve] |
| Cc1c(CC(=O)N2C[C@H]3C[C@@H](C2)c2cccc(=O)n2C3)c(=O)oc2cc(O)c(Cl)cc12 | inconclusive [inhibitor, full curve, poor fit] |
| Cc1ccc(S(=O)(=O)N(C)c2ccc(C(=O)NCC3CCCO3)cc2)cc1 (stereo unspecified) | inconclusive [inhibitor, single point] |
| Cc1nn(CC(=O)Nc2cccnc2N2CCOCC2)c(=O)c2ccccc12 | inconclusive [inhibitor, partial curve, poor fit] |

| SMILES | Potency |
| --- | --- |
| c1ccc2c(NC3=NCCCCS3)cccc2c1 | inconclusive [inhibitor, partial curve, poor fit] |
| OCCOc1ccc(CN2CCCC(N3CCN(c4ccc(F)cc4)CC3)C2)cc1 (stereo unspecified) | inconclusive [inhibitor, full curve, poor fit] |
| CC(NC(=O)/C(=C/c1ccc(OC(F)F)cc1)c1ccccc1)c1ccccc1 (stereo unspecified) | inconclusive [inhibitor, single point] |
| COc1ccc2[nH]c(=O)c(CN(Cc3nnnn3Cc3ccco3)C3CCCCC3)cc2c1 | inactive |
| Clc1ccccc1-c1nnc2n1CCCCC2 | inconclusive [inhibitor, partial curve, poor fit] |
| Cc1nc(SCC(=O)Nc2ccnc3ccccc23)n[nH]1 | inconclusive [inhibitor, full curve, poor fit] |
| O=C1CN(S(=O)(=O)c2ccccc2Cl)CCN1 | inconclusive [inhibitor, single point] |
| O=C(CSc1nc2ccccc2c(=O)n1-c1ccccc1)N1CCc2ccccc2C1 | inconclusive [inhibitor, partial curve] |
| CC1(C)C(=O)N(CC(=O)Nc2ccc(Br)cc2F)c2ccccc21 | inactive |
| CC(C)(C)NC(=O)C(=O)NN=C1CCCCCCCCCCC1 | inactive |
| COc1ccc(NC(=O)CSc2nnc(Cc3ccc(C)cc3)c(=O)n2N)cc1 | inconclusive [inhibitor, full curve, poor fit] |
| CCC(C)(C)C1CCC(NC(=O)N2CCN(c3ccccc3O)CC2)CC1 (stereo unspecified) | inactive |
| COc1cccc(NC(=O)c2c(C)nn(-c3ccccc3)c2Cl)c1 | inconclusive [inhibitor, full curve, poor fit] |
| O=C(CSc1nccn1Cc1ccccc1)Nc1ccccc1 | inactive |
| O=C(CSC1=NCCN1)NC1CCCCCC1 | inconclusive [inhibitor, full curve] |
| O=C(NCc1nc(-c2ccc(C(F)(F)F)cc2)no1)c1cccs1 | inactive |
| CNC(=O)c1sccc1SCc1ccc(Cl)cc1Cl | inconclusive [inhibitor, partial curve, poor fit] |
| O=C(Nc1ccc(-c2ccc(N3CCCCC3)nn2)cc1)c1ccco1 | inconclusive [inhibitor, partial curve] |
| Cn1nccc1C(=O)Nc1cccc(C(F)(F)F)c1 | inconclusive [inhibitor, full curve] |
| Cc1ccc(-n2c(=O)cc(NCc3cccnc3)[nH]c2=O)cc1 | inactive |
| Cc1cccc(NC(=O)CSc2ncnc3c2oc2ccccc23)c1 | inconclusive [inhibitor, full curve] |
| COC(=O)c1[nH]c2c(c1C)C(=O)CC(c1cc(OC)ccc1OC)C2 (stereo unspecified) | inconclusive [inhibitor, full curve, poor fit] |
| O=C1c2ccccc2C(=O)N1Cc1nc2ccccc2c(=O)n1-c1ccc(Br)cn1 | inconclusive [inhibitor, partial curve] |
